In PubChem BioAssay AID2147 (National Center for Advancing Translational Sciences (NCATS), 2009):
Hit rate of the full screen: of about 230,000 compounds, about 3,600 (1.6%) were called active. This list was built around the results that the source calls inconclusive (neither active nor inactive); the mix of calls is not that of the screen. Calls follow the shape of the dose curve; as a rule, active = well fitted inhibition curve with a large enough effect (not every such curve was filed as active); inconclusive = small, poorly fitted or top-dose-only effect, or another doubt; inactive = no such curve, though single readings can be large or run the other way. A potency beside an inconclusive call is a rough fit, not a confirmed value.

What follows are compounds tested against Lysine-specific demethylase 4E (Homo sapiens) (UniProt B2RXH2) (assay: qHTS Assay for Inhibitors of Human Jumonji Domain Containing 2E (JMJD2E)). Details: JMJD2E catalytic domain, FDH-coupled NADH fluorescence (FDH is formaldehyde dehydrogenase); series mostly up to 57.1 µM; activity change, negative = inhibition: at the top concentration.
Chain of UniProt B2RXH2 (B2RXH2 whole entry, looked up, the tested form may be a part): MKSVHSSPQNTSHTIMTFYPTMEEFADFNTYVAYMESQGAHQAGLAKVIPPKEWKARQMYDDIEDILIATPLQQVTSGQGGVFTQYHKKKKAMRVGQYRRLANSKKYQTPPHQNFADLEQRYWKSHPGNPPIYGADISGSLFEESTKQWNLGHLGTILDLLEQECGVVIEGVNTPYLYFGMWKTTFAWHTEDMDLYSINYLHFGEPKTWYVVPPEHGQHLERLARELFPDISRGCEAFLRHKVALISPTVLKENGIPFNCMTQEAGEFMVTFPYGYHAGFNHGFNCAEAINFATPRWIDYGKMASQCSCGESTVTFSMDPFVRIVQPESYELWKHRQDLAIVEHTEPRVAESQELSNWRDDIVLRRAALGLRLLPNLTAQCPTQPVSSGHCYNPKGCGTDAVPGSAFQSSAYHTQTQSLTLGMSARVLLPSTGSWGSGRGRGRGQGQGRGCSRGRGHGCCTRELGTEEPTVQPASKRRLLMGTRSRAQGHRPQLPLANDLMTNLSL
Also: nearly all actives have a fitted effect of over 50% in size.
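For activity change, negative = inhibition in this document: 0% = wells with enzyme and -100% = buffer wells without enzyme.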
Potency is read from the fitted curve at half-maximal effect; tags tell the direction and shape of the fitted curve.

Row | Compound | activity change, negative = inhibition | Potency
1 | O=c1cc(-c2ccccc2Cl)oc2c(NS(=O)(=O)c3cc(Cl)cc(Cl)c3O)ccc(O)c12 | inactive: -23.2% | –
2 | O=C(COc1ccccc1)NNC(=O)c1cc2ccccc2oc1=O | – | inconclusive: 28.2 µM [inhibitor, single point]
3 | COC(=O)c1ccc(NC(=O)c2cccc(C)c2[N+](=O)[O-])cc1 | inactive: -8.49% | –
4 | CCOc1ccc(NC(=O)Nc2cccn(Cc3ccccc3)c2=O)cc1 | – | inconclusive: 35.5 µM [inhibitor, single point]
5 | CN(C)S(=O)(=O)c1cc(NC(=O)CN2CCN(c3ccc(O)cc3)CC2)ccc1Cl | – | inconclusive: 20 µM [inhibitor, single point]
6 | COc1cccc(-c2nnn(CC(=O)Nc3cc(OC)c(NC(=O)c4ccco4)cc3OC)n2)c1 | – | inconclusive: 35.5 µM [inhibitor, single point]
7 | O=c1nc(-c2ccccc2)c2ccccc2[nH]1 | – | inconclusive: 7.94 µM [inhibitor, partial curve]
8 | Cc1cc2ccccc2n1CCNC(=O)c1ccc(Br)o1 | inactive: -23.4% | –
9 | Cn1cc(CNCc2cnc3ccccn23)c(-c2ccc(Oc3ccccc3)cc2)n1 | – | inconclusive: 28.2 µM [inhibitor, single point]
10 | CC1=[N+]([O-])C(C)(C)N(O)C1(C)C | – | inconclusive: 39.8 µM [inhibitor, single point]
11 | O=C(CSc1nnc(CCCOc2ccc(Cl)cc2Cl)o1)Nc1ccc(C(=O)O)cc1 | inactive: 10.3% | –
12 | N#CC1=C(c2ccccc2)/C(=C/c2ccccc2)OC1=O | – | inconclusive: 25.1 µM [inhibitor, single point]
13 | Cc1ccc(CN2C(=O)N/C(=C/c3cc(C)n(-c4ccccn4)c3C)C2=O)cc1 | – | inconclusive: 31.6 µM [inhibitor, partial curve]
14 | Cc1cc(NC(=S)NC(=O)/C=C/c2ccc(S(=O)(=O)N3CCOCC3)cc2)ccc1Br | inactive: 6.06% | –
15 | Cc1c(O)ccc(/C(Cc2ccc3ccccc3n2)=N\N)c1O | – | inconclusive: 28.2 µM [inhibitor, partial curve]
16 | COC(=O)c1cn(NC(=O)/C=C/c2cc(OC)ccc2OC)c(=O)c2ccccc12 | – | inconclusive: 31.6 µM [inhibitor, partial curve]
17 | Cc1ccc(C)n1NC(=O)c1ccccc1[N+](=O)[O-] | – | inconclusive: 39.8 µM [inhibitor, single point]
18 | CNC(=O)c1c(NC(=O)c2nc3ccccc3s2)sc2c1CCC2 | inactive: -19.6% | –
19 | COc1ccc(-c2cc(-c3nnc(COC(=O)C4CC4)o3)c3ccccc3n2)cc1OC | – | inconclusive: 31.6 µM [inhibitor, single point]
20 | COc1ccc(/C=C/C(=O)c2cc(O)ccc2O)cc1 | – | inconclusive: 39.8 µM [inhibitor, single point]
21 | CC(=O)c1sc2nc(C)cc(C)c2c1N | – | inconclusive: 28.2 µM [inhibitor, partial curve]
22 | O=C(Oc1ccc(O)cc1)C12CC3CC(CC(C3)C1)C2 | inactive: -27.3% | –
23 | CCC1=C2CC[C@H]3C(=O)N(c4ccccc4)C(=O)[C@H]3[C@H]2[C@@]2(Cc3ccccc3)C(=O)N(CC(=O)OC)C(=O)N2C1=O | inactive: -4.76% | –
24 | COc1cccc(-c2nnc(SCC(=O)N3CCCc4ccccc43)o2)c1 | – | inconclusive: 39.8 µM [inhibitor, single point]

Row | Compound | activity change, negative = inhibition | Potency
25 | COc1ccc(C2C3(C#N)C(N)=NC(OC)(OC)C23C#N)cc1 (stereo unspecified) | – | inconclusive: 22.4 µM [inhibitor, single point]
26 | COC(=O)COc1ccc2cccc(-n3cnnn3)c2c1 | – | inconclusive: 35.5 µM [inhibitor, single point]
27 | CCS(=O)(=O)NCC(c1cccnc1)N1CCN(c2ccc(OC)cc2)CC1 (stereo unspecified) | – | inconclusive: 28.2 µM [inhibitor, partial curve]
28 | O=S(=O)(NCc1csc(-c2cccs2)n1)c1cccc(C(F)(F)F)c1 | – | inconclusive: 35.5 µM [inhibitor, single point]
29 | CC1OC(OCC2OC(Oc3c(-c4ccc(OCCO)c(OCCO)c4)oc4cc(OCCO)cc(O)c4c3=O)C(O)C(O)C2O)[C@@H](O)C(O)C1O (stereo partly specified) | inactive: -12.1% | –
30 | O=C1C(Cl)=C(Nc2ccc3cn[nH]c3c2)C(=O)c2ccccc21 | – | active: 10 µM
31 | O=C(Nc1cccc(-c2nc3ccccc3c(=O)o2)c1)c1ccccc1 | – | inconclusive: 17.8 µM [inhibitor, partial curve]
32 | Cc1ccccc1C(=O)NC1CCN(Cc2nnnn2C2CCCC2)CC1 | inactive: 6.79% | –
33 | O=C1CCC/C1=c1\s/c(=C\c2cccnc2)c(=O)n1-c1ccccc1 | inactive: -2.69% | –
34 | COc1ccc(-c2cc3ccccc3oc2=O)cc1NC(=O)c1ccc(Br)o1 | – | inconclusive: 3.98 µM [inhibitor, full curve]
35 | Cc1ccc(Nc2ncnc(N)n2)cc1C | – | inconclusive: 25.1 µM [inhibitor, single point]
36 | S=C(NCCc1ccccn1)Nc1ccccc1Cl | – | inconclusive: 11.2 µM [inhibitor, partial curve]
37 | COc1ccc(-c2ccoc2)cc1[C@H]1[C@H]2C=CC[C@@H](C)[C@@H]2C(=O)N1Cc1ccccc1 | – | inconclusive: 39.8 µM [inhibitor, single point]
38 | CC(=O)C1C(=O)CC(C)(O)C(C(C)=O)C1c1ccc(N(C)C)cc1 (stereo unspecified) | inactive: -10.1% | –
39 | CCN(CC)S(=O)(=O)c1ccc(C(=O)N2CCc3ccccc32)cc1 | inactive: 5.47% | –
40 | O=C(Oc1cc(=O)oc2c1c(=O)n1c3c(cccc23)CC1)c1ccccc1 | – | inconclusive: 28.2 µM [inhibitor, partial curve]
41 | Cc1ccc(NC(=O)/C(=C\c2ccccc2)NC(=O)/C=C/c2ccccc2)cc1 | – | inconclusive: 35.5 µM [inhibitor, single point]
42 | O=C(CNc1cccc([N+](=O)[O-])c1)N/N=C/c1ccc([N+](=O)[O-])o1 | inactive: -23.1% | –
43 | CCOc1ccc(N2CCc3c(C)nc(SC)nc32)cc1 | – | inconclusive: 35.5 µM [inhibitor, single point]
44 | Cc1ccc(NC(=O)CSc2nnc(-c3ccncc3)o2)cc1C | inactive: 8.51% | –
45 | CC(=O)c1cccc(NS(=O)(=O)c2ccc3c(c2)oc(=O)n3C)c1 | inactive: 1.48% | –
46 | O=C(O)c1cccc(Nc2ncnc3ccc(Br)cc23)c1 | – | inconclusive: 35.5 µM [inhibitor, single point]
47 | C=C1C(=O)O[C@@H]2[C@H]3O[C@]3(C)CCC=C(C)CC[C@@H]12 | – | inactive
48 | CNC(=O)NC(=O)CSc1nc(-c2cccs2)c(C#N)c(=O)[nH]1 | inactive: -11.8% | –

Row | Compound | activity change, negative = inhibition | Potency
49 | COC(=O)c1cc(NC(=O)CN(C)Cc2ccccc2)cc(C(=O)OC)c1 | – | inconclusive: 28.2 µM [inhibitor, partial curve]
50 | CCOC(=O)c1cc2c(=O)n3cccc(C)c3nc2n(Cc2ccco2)c1=NC(=O)c1cccnc1 | – | inconclusive: 28.2 µM [inhibitor, partial curve]
51 | Cn1c(=O)c2c(nc(CN3CCC(C(N)=O)CC3)n2CCc2ccccc2)n(C)c1=O | – | inconclusive: 39.8 µM [inhibitor, single point]
52 | C=CCNC(=O)c1ccc(-c2ccc([N+](=O)[O-])cc2)o1 | inactive: -14.4% | –
53 | CCN(CC)c1ccc(/C=N/NC(=O)Nc2ccccc2)cc1 | – | inconclusive: 28.2 µM [inhibitor, partial curve]
54 | CCOC(=O)N/N=C/c1c(F)c(F)c(F)c(F)c1F | inactive: -0.391% | –
55 | CN(Cc1ccccc1)C(=O)COC(=O)c1cc(-c2ccc(Cl)s2)nc2ccccc12 | – | inconclusive: 28.2 µM [inhibitor, partial curve]
56 | COCCn1c(C)cc(C2=NNC(=Nc3ccc(Cl)cc3Cl)SC2)c1C | inactive: -3.96% | –
57 | Cc1ccc(C2C3=C(CCCC3=O)Nc3c2c(C)nn3-c2ccccn2)o1 (stereo unspecified) | – | inconclusive: 39.8 µM [inhibitor, single point]
58 | Cc1ccsc1/C=N/NC(=S)NCc1ccccc1 | – | inconclusive: 39.8 µM [inhibitor, single point]
59 | O=C(COC(=O)c1cc(=O)c2ccccc2o1)NC1CCCC1 | inactive: -2.65% | –
60 | O=C(CSc1ncn[nH]1)N1N=C2/C(=C/c3ccco3)CCCC2C1c1ccco1 (stereo unspecified) | inactive: -13.1% | –
61 | CC(=O)c1ccccc1NC(=O)COC(=O)/C=C/c1ccc(C)o1 | – | inconclusive: 28.2 µM [inhibitor, partial curve]
62 | COc1cccc(C(=O)Nc2nnc(-c3ccc(Cl)cc3)o2)c1 | – | inconclusive: 35.5 µM [inhibitor, single point]
63 | COc1ccc(Cc2nc3ccc(S(N)(=O)=O)cc3[nH]2)cc1OC | – | inconclusive: 39.8 µM [inhibitor, single point]
64 | Cc1cccc(N(Cc2ccccc2)C(=O)CCl)c1 | inactive: -0.712% | –
65 | CCCC(=O)Nc1cc(-c2nc3ncccc3o2)ccc1C | – | inconclusive: 28.2 µM [inhibitor, partial curve]
66 | O=c1[nH]cc(NCCc2ccccc2)c(=O)[nH]1 | – | inconclusive: 39.8 µM [inhibitor, single point]
67 | Cc1ccc(C2(C(F)(F)F)NC(=O)N3N=C4CCCCCN4C3=C2C#N)cc1 (stereo unspecified) | inactive: -0.225% | –
68 | c1ccc(-c2nc(-c3ccc(-c4ccon4)s3)no2)cc1 | – | inconclusive: 35.5 µM [inhibitor, single point]
69 | Cc1cc(-c2ccccc2)nc(Oc2ccc(C(C)(C)C)cc2)c1S(C)(=O)=O | inactive: -27.8% | –
70 | O=[N+]([O-])c1cccc(/C=N/n2c(-c3cccnc3)n[nH]c2=S)c1 | – | inconclusive: 35.5 µM [inhibitor, single point]
71 | NC(=O)N/N=C/c1ccc(-c2cccc(C(F)(F)F)c2)o1 | – | inconclusive: 39.8 µM [inhibitor, single point]
